Numbering of substitutions follows the chain as printed; changes in the protein carry UniProt numbers. Some of the results follow.

For 9 molecules, binding signal results are on record in PMC9911399, “Two distinct binding modes provide the RNA-binding protein RbFox with extraordinary sequence specificity”.

The chains are these.
T1: RBFOX1 RRM (Homo sapiens, UniProt Q9NWB1 109-208)
T1 sequence: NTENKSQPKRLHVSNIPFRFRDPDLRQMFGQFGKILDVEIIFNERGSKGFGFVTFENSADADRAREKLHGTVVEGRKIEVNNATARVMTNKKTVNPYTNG

B1: ACCGGGG (DNA:RNA)
RNA: GGGAGACCGGAAUUCAGAUUGUCCACCGGGGUUAAAUCCCGUCGUAGCCACCA
DNA 1: CAATCTGAATTCCGGTCTCCC
DNA 2: TGGTGGCTACGACGGGATT
B2: UUUGGCG (DNA:RNA)
RNA: B1 RNA with A25U, C26U, C27U, G30C
DNA 1: CAATCTGAATTCCGGTCTCCC
DNA 2: TGGTGGCTACGACGGGATT
B3: CUUUGCG (DNA:RNA)
RNA: B1 RNA with A25C, C26U, C27U, G28U, G30C
DNA 1: CAATCTGAATTCCGGTCTCCC
DNA 2: TGGTGGCTACGACGGGATT
B4: CGUUGCU (DNA:RNA)
RNA: B1 RNA with A25C, C26G, C27U, G28U, G30C, G31U
DNA 1: CAATCTGAATTCCGGTCTCCC
DNA 2: TGGTGGCTACGACGGGATT
B5: GGUUGCU (DNA:RNA)
RNA: B1 RNA with A25G, C26G, C27U, G28U, G30C, G31U
DNA 1: CAATCTGAATTCCGGTCTCCC
DNA 2: TGGTGGCTACGACGGGATT
B6: UCAAAGG (DNA:RNA)
RNA: B1 RNA with A25U, C27A, G28A, G29A
DNA 1: CAATCTGAATTCCGGTCTCCC
DNA 2: TGGTGGCTACGACGGGATT
B7: UACCGAU (DNA:RNA)
RNA: B1 RNA with A25U, C26A, G28C, G30A, G31U
DNA 1: CAATCTGAATTCCGGTCTCCC
DNA 2: TGGTGGCTACGACGGGATT
B8: GUUGCUA (DNA:RNA)
RNA: B1 RNA with A25G, C26U, C27U, G29C, G30U, G31A
DNA 1: CAATCTGAATTCCGGTCTCCC
DNA 2: TGGTGGCTACGACGGGATT
B9: GUCGACA (DNA:RNA)
RNA: B1 RNA with A25G, C26U, G29A, G30C, G31A
DNA 1: CAATCTGAATTCCGGTCTCCC
DNA 2: TGGTGGCTACGACGGGATT

The target in the assay is T1, RBFOX1 RRM. As to the kind of experiment: EMSA; HiTS-Eq, 1 nM pool, 10 min; buffer printed only for the single-RNA assays: 10 mM Tris pH 7.5, 150 mM NaCl, 3.4 mM EDTA, 0.001% NP-40, 30 C. As to conditions: tags: His6 N-terminal (pET28a); label: 5' 32P. A digest of the protocol:
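A pool of RNA with 7 randomized nucleotides, 5′-radiolabelled and with DNA-annealed flanks, was equilibrated at 1 nM for 10 min in 50 µL with purified RbFox RRM, wild type or mutant, across increasing protein concentrations. Free RNA was separated by 8% native PAGE, excised, reverse-transcribed, barcoded by PCR and sequenced. Relative association constants were obtained from read-count changes of each RNA species versus the control reaction and normalised to the cognate motif.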
On the technique in general: Mobility shift assays separate free from complexed probe on a gel.
Regarding B1, the binding signal was 0.0132 KA relative to UGCAUGU.

Consider B2, for which the binding signal was 0.0217 KA relative to UGCAUGU.

Consider B3, for which the binding signal was 0.0182 KA relative to UGCAUGU.

For the molecule B4, the binding signal is 0.0216 KA relative to UGCAUGU.

Regarding B5, the binding signal is 0.0267 KA relative to UGCAUGU.

Take B6: the binding signal is 0.00677 KA relative to UGCAUGU.

B7: the binding signal was 0.00545 KA relative to UGCAUGU.

B8: the binding signal was 0.0141 KA relative to UGCAUGU.

In the case of B9, the binding signal was 0.00951 KA relative to UGCAUGU.
